In the supplement of paper PMC3334620:
In all, about 33,000 sequences were measured (“E-score (-0.5 to 0.5)”: median about -0.032, highest 2% from about 0.36 on). Some of the results follow.

These sequences were tested against T1, Sko1 (UniProt Q02100) (assay: PBM E-score (8-mer binding enrichment) (E-score (-0.5 to 0.5)); higher = stronger / more preferred TF binding; most listed sequences are background and not binding sites). Details: protein concentration: 200 nM; construct: GST-full length.
T1 sequence: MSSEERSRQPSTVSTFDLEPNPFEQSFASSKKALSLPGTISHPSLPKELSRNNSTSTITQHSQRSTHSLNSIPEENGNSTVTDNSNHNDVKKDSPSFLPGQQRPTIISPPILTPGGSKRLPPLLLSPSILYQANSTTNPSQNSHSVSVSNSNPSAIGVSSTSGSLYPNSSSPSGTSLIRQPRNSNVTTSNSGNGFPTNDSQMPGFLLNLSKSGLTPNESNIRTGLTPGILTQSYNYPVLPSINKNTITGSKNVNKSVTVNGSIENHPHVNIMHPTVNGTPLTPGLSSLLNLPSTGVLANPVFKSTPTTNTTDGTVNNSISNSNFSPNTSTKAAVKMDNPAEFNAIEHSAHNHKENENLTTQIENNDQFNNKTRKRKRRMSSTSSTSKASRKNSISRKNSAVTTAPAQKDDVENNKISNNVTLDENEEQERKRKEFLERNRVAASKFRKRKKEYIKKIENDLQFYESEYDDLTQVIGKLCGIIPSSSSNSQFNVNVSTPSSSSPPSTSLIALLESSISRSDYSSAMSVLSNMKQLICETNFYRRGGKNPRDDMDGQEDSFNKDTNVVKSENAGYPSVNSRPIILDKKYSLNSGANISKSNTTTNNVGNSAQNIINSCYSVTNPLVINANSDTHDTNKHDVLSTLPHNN
Procedure, shortened: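 Each ungapped eight-base word and its reverse complement, pooled, received an E-score from the Universal PBM Analysis Suite. Underlying scans, normalised with masliner, recorded fluorescent anti-GST bound to GST-tagged yeast transcription factors. These were applied at about 100-200 nM to universal all-10-mer Agilent arrays double-stranded by primer extension.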

Sequence	PBM E-score
TGAGCGCA	-0.0878
CGCCCAGA	-0.252
CCTGGCGA	-0.35
TACCGTCA	0.266
AAAGTTGC	-0.0136
TAGCTCAA	0.0344
AAGGGGGA	-0.288
AGGTCTTG	-0.159
TGGCAACA	-0.0552
CGGAGGAA	-0.2
ATTGTATA	0.177
AATCCAGT	-0.0398
CAACAGGC	-0.168
CCTTAGGA	-0.0321
TATTTCAA	0.318
TTGCACAA	0.0801
CGATCATC	-0.0331
AAGGCGGT	-0.229
AGGCTAGG	-0.236
AGCATGTG	-0.141
CATGATGA	0.304
TACGCGAA	0.277
AAGTATCG	-0.0131
CCGCTAAA	-0.167
CCCAGCCC	-0.277

Sequence	PBM E-score
GGATCCAA	-0.00021
GCATTGCC	-0.21
CGCGGAAG	-0.227
GGAACGTA	0.289
ACCGGTGC	-0.133
AATAGTTC	0.163
AATAACTC	0.0275
ACCACGTG	0.362
ACGTGTAG	0.367
GCATCCCC	-0.226
GCATACAA	0.114
AACGGGAA	-0.0254
GGACTCTA	-0.24
ACGGCGAG	-0.0904
ATATCGGG	-0.0441
AATGAAGT	0.127
TCAAATGA	0.172
GAATAAAA	0.215
CGTCGGTA	0.128
AGTCACCC	-0.145
AGGGCAGC	-0.262
ATGCACAA	-0.00169
AAACATGG	-0.158
TCCTAAGA	-0.018
GTTGTAAA	0.101

Sequence	PBM E-score
ATATGATG	0.344
GCTTGATA	0.117
ACCAGCGC	-0.0872
AAGTGCAA	-0.0729
TGTGATAA	0.258
TGATTCAA	0.144
CACATGGA	-0.0377
CAACCGGG	-0.217
ATGAATAC	0.301
TCGCCCAA	-0.144
ACGCGCGG	0.108
ACAATCGA	0.0433
TATACTGA	0.198
ACAAAGTG	-0.116
CTCATAGA	0.00332
AGATAATG	0.194
CGTTTGCC	0.0429
ATGAGGAC	-0.11
GCCATCGC	-0.172
ATTATTAA	0.168
TGAAAAAA	0.199
CACGCCGG	-0.211
GCATCACC	-0.029
TTCCTAAA	-0.0368
GGTGACAA	0.183

Sequence	PBM E-score
AGAAGTCC	-0.214
CCGGCCGG	-0.373
CAATACGC	0.287
CTGAACGC	-0.164
AGGTGAGG	-0.192
CCCGGCAA	-0.317
GCCCTGCC	-0.392
GCTTGCCA	0.0866
AGCGCGCT	-0.13
TCGGCGAA	-0.155
ACTACTAG	0.0563
AGGTATTA	0.17
ATTAAGTC	0.118
CATAATCG	0.156
CTACCGCA	-0.122
AAGAGGTG	-0.0886
ACTCTAAA	0.139
CTGAAGTC	-0.0215
CAAGAACA	0.0791
GGTATGTA	0.0659
ATCTCCGC	-0.0384
ACCCATCT	-0.0673
CCACTTGC	-0.163
ACGAGGGA	0.044
CGCAAAGC	0.0256

Sequence	PBM E-score
CTCCGAAA	-0.00015
GAGATGGA	-0.0954
AAATGAAA	0.243
AGGCTTAA	-0.12
CGTCGGAA	0.172
CGACTCGA	-0.254
AGCCCATA	-0.0733
GACTGTGA	0.0327
AGGATTCC	-0.272
CTAGATGC	0.0449
CCATCTCC	-0.128
GGCCGCCA	-0.252
AGCTCTTA	0.0315
AGGAACCT	-0.246
ATAGGCAA	-0.0944
ACTCGCTC	-0.14
ATGTTATA	0.209
CTCAGGAA	-0.138
GATTAGGA	-0.064
CTGAGACA	-0.225
TTAAGCAA	0.0549
AGTTTAAG	-0.0465
CCGCGTTA	0.00254
ATCCAGTG	0.111
GCCGGACA	-0.123

Sequence	PBM E-score
ACGTCGGG	0.159
TAATTCTA	0.227
GCGCTCGA	-0.132
CTCCTGGA	-0.351
AGATAGTC	-0.0988
AAAAGGTT	-0.176
ATTCATCC	0.0207
CAGTGATC	-0.125
CCCTGAGG	-0.294
CCATAATA	0.128
TCTAGAGA	-0.275
CGTATTAG	0.382
GCGGGAAA	-0.104
GAATTACA	0.132
ATGTCGGA	-0.129
AGATCGAA	0.0696
GGCTGAAA	-0.106
CTCTCGCC	-0.29
AGTGGCCG	-0.316
CGTGACCC	0.0906
GTTTCTTA	0.117
CCCATCGC	-0.232
ACGGTTAT	0.0459
CAATGAGA	-0.00417
ACCGTCCT	-0.101

Sequence	PBM E-score
CCTTGGAG	-0.122
ACCAGGTA	-0.291
AAATTGGA	0.0977
AACGATTG	0.149
AGGTAGTG	-0.0666
GAGAAACA	0.0515
CGGAGGGA	-0.377
CGGCCAAC	-0.315
ATCCCTAA	-0.165
AAAGCCGC	-0.101
GCAGCGGC	-0.178
GAGTGTGA	0.136
CACACGTA	0.45
CCGTTGCG	0.00759
TGCAACCA	-0.0883
GTGGTGAA	-0.00249
CCTGGACA	-0.271
CCAGGCAA	-0.152
CTGCACCA	-0.305
CCTAGTAC	0.00576
AGCGAGAC	-0.175
CTTTTGTA	0.139
